In series [1] the target is T1, recombinant human Nectin-4 protein (Homo sapiens, UniProt Q96NY8).
T1 sequence (Q96NY8 32-510): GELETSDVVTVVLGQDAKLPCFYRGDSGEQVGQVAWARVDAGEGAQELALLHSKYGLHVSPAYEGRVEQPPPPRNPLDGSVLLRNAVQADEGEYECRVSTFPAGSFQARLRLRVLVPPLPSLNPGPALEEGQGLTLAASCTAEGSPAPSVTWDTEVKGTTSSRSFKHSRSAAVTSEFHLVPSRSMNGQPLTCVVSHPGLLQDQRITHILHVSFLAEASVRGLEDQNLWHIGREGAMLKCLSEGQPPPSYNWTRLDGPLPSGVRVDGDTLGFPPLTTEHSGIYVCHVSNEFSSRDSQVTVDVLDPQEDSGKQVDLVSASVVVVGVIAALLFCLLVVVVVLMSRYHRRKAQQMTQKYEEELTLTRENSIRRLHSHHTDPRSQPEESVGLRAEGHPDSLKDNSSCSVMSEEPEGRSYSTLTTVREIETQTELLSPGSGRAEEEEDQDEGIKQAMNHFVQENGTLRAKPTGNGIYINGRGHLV
The series can be described thus: ELISA binding to recombinant Nectin-4. (In an ELISA, binding on a coated surface is turned into a signal by an enzyme label.)

The target of another series is T2, recombinant rat Nectin-4 (Rattus norvegicus, UniProt D3ZET1).
T2 sequence (D3ZET1 31-509): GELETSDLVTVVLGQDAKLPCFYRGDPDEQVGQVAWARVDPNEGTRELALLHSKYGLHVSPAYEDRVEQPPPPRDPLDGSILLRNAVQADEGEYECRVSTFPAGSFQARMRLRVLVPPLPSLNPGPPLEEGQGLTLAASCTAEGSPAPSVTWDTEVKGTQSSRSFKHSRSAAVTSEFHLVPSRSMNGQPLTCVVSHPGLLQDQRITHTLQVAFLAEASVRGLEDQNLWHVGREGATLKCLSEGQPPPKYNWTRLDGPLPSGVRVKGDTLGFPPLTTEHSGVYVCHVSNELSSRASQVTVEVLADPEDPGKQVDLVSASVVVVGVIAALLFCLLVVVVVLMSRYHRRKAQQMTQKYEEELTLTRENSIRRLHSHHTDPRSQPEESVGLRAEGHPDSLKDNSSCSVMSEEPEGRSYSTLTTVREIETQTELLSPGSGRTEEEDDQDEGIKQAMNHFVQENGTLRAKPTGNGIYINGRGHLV
The series can be described thus: ELISA binding to recombinant Nectin-4.

Series [2] has as its target T3, recombinant human Nectin-2 (Homo sapiens, UniProt Q92692).
T3 sequence (Q92692 32-538): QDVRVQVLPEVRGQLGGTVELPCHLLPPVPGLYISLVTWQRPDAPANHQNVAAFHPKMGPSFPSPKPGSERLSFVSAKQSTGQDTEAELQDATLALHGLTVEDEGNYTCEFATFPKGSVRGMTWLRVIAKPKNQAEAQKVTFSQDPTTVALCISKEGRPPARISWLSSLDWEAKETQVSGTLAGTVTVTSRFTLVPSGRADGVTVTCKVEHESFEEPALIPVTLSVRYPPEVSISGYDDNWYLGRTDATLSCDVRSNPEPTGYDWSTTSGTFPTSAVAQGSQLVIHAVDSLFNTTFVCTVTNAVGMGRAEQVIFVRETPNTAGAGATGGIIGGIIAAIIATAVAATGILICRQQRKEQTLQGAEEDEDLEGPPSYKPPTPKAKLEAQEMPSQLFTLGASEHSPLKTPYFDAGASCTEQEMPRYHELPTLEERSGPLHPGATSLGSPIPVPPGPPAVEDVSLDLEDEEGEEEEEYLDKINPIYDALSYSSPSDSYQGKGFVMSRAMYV
The series can be described thus: ELISA specificity within the nectin family. The format is binding.

Series [3] relates to SUM190PT (a breast cancer cell line).
Series [4] addresses recombinant human Nectin-3 (Homo sapiens, UniProt Q9NQS3). The series can be described thus: ELISA specificity within the nectin family. The format is binding.
For series [5], the target named is T4, recombinant mouse Nectin-4 (Mus musculus, UniProt Q8R007).
T4 sequence (Q8R007 31-508): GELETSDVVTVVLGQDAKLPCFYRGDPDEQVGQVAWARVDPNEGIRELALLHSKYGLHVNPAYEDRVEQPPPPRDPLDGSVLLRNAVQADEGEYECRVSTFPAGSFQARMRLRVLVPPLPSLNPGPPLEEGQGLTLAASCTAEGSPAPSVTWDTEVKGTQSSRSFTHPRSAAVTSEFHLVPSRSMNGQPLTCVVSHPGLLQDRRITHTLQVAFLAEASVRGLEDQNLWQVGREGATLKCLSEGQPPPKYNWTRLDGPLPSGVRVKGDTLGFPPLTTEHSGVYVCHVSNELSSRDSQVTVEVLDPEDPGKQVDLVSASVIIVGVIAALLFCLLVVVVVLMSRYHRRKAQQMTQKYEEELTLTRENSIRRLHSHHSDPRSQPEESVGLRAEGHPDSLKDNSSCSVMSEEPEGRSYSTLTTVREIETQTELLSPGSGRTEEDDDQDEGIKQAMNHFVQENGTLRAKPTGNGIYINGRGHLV
The series is described as follows: ELISA binding to recombinant Nectin-4.

Series [6] concerns the target recombinant cynomolgus monkey Nectin-4. The series can be described thus: ELISA binding to recombinant Nectin-4.
For series [7], the target named is T5, recombinant human Nectin-1 (Homo sapiens, UniProt Q15223).
T5 sequence (Q15223 31-517): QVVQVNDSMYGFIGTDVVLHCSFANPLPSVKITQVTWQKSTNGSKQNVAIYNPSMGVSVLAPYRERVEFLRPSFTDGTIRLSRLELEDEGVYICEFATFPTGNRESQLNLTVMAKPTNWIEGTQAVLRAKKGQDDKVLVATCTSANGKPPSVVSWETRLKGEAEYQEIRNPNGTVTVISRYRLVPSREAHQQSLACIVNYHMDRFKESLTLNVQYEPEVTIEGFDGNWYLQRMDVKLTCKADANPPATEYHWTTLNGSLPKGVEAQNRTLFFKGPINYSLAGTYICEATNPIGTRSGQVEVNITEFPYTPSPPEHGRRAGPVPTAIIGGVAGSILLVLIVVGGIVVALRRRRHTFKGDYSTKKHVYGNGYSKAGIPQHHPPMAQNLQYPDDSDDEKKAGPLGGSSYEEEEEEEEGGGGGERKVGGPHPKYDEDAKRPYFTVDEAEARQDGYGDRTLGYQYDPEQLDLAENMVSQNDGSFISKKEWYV
The series is described as follows: ELISA specificity within the nectin family. The format is binding.

Series [8] deals with bladder cancer xenograft model (BL9200). The series can be described thus: HuPrime bladder cancer xenograft model (BL9200) in NOD/SCID mice. The format is in vivo, NOD/SCID strain female mice. Conditions: for Tumor Volume (mean ± SEM), Day 25: number of mice in brackets.

From patent EP4796129A1, “ANTI-NECTIN-4 ANTIBODY-DRUG CONJUGATE COMPRISING CAMPTOTHECIN DERIVATIVE” (Celltrion, Inc., priority 2023, dated 2025) come the findings set out here.

Sequence of recombinant human Nectin-3 (Q9NQS3 58-549): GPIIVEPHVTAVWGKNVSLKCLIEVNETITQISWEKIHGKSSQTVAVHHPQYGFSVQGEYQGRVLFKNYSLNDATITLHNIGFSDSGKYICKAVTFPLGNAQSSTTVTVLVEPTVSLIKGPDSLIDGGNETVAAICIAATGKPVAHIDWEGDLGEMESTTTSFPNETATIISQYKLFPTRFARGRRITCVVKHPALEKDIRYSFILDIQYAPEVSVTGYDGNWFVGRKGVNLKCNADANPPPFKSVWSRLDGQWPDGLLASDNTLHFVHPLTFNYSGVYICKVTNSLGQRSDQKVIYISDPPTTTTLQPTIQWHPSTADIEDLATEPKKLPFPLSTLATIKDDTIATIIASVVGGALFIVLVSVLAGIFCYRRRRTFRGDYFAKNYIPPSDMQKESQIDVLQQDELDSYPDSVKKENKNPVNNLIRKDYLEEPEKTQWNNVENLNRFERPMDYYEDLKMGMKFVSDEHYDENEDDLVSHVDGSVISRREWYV

B1: Enfortumab-PBX-7016: ADC: payload PBX-7016, linker mc-GGFG, anti-Nectin-4 antibody (Enfortumab); DAR not stated where so labelled (conjugate)
heavy: EVQLVESGGGLVQPGGSLRLSCAASGFTFSSYNMNWVRQAPGKGLEWVSYISSSSSTIYYADSVKGRFTISRDNAKNSLSLQMNSLRDEDTAVYYCARAYYYGMDVWGQGTTVTVSSASTKGPSVFPLAPSSKSTSGGTAALGCLVKDYFPEPVTVSWNSGALTSGVHTFPAVLQSSGLYSLSSVVTVPSSSLGTQTYICNVNHKPSNTKVDKRV[human IgG1 Fc not given here]
light: DIQMTQSPSSVSASVGDRVTITCRASQGISGWLAWYQQKPGKAPKFLIYAASTLQSGVPSRFSGSGSGTDFTLTISSLQPEDFATYYCQQANSFPPTFGGGTKVEIKRTVAAPSVFIFPPSDEQLKSGTASVVCLLNNFYPREAKVQWKVDNALQSGNSQESVTEQDSKDSTYSLSSTLTLSKADYEKHKVYACEVTHQGLSSPVTKSFNRGEC
Turning to B1, the “EC50” value in series [1] (Human Nectin-4) came to 8.31 ng/mL; with recombinant rat Nectin-4, 9.88 ng/mL; in [6] it was 7.94 ng/mL. In addition, the “binding to recombinant human Nectin-4 protein (in words)” value in [1] (specificity test) was “specifically bound”. Moreover, the “binding to recombinant human Nectin-2 (in words)” value in [2] is given as “did not bind”. Besides, the “cytotoxicity (in words)” value in series [3] is reported as “enhanced cytotoxicity compared to isotype ADC”. For the same molecule, the “binding to recombinant human Nectin-3 (in words)” value in [4] is “did not bind”. Further, the “binding to mouse Nectin-4 (in words)” value in [5] is “minimal binding”. Moreover, the “binding to recombinant human Nectin-1 (in words)” value in series [7] is “did not bind”.

B2: Enf-PBX-7016 (DAR 4.1): Example 3 ADC made with 12 equivalents TCEP and 6 equivalents linker-payload; DAR 4.1 (conjugate)
heavy: EVQLVESGGGLVQPGGSLRLSCAASGFTFSSYNMNWVRQAPGKGLEWVSYISSSSSTIYYADSVKGRFTISRDNAKNSLSLQMNSLRDEDTAVYYCARAYYYGMDVWGQGTTVTVSSASTKGPSVFPLAPSSKSTSGGTAALGCLVKDYFPEPVTVSWNSGALTSGVHTFPAVLQSSGLYSLSSVVTVPSSSLGTQTYICNVNHKPSNTKVDKRV[human IgG1 Fc not given here]
light: DIQMTQSPSSVSASVGDRVTITCRASQGISGWLAWYQQKPGKAPKFLIYAASTLQSGVPSRFSGSGSGTDFTLTISSLQPEDFATYYCQQANSFPPTFGGGTKVEIKRTVAAPSVFIFPPSDEQLKSGTASVVCLLNNFYPREAKVQWKVDNALQSGNSQESVTEQDSKDSTYSLSSTLTLSKADYEKHKVYACEVTHQGLSSPVTKSFNRGEC
Consider B2, for which, in series [8] (5 mg/kg i.v. QW × 3wks), the “TGI (%), Day 25” value worked out at 104.2%; the “ΔT/ΔC (%), Day 25” value is -4.2%; the “Tumor Volume (mean ± SEM), Day 25” value is listed as 95.26 +/- 21.57(10) mm^3. Besides, in series [8] (10 mg/kg i.v. QW × 3wks), the “TGI (%), Day 25” value is recorded as 109.5%; the “ΔT/ΔC (%), Day 25” value is listed as -9.5%; the “Tumor Volume (mean ± SEM), Day 25” value is 10.64 +/- 2.93(10) mm^3.

B3: Enf-PBX-7016 (DAR 7.9): Example 3 ADC made with 30 equivalents TCEP and 12 equivalents linker-payload; DAR 7.9 (conjugate)
heavy: EVQLVESGGGLVQPGGSLRLSCAASGFTFSSYNMNWVRQAPGKGLEWVSYISSSSSTIYYADSVKGRFTISRDNAKNSLSLQMNSLRDEDTAVYYCARAYYYGMDVWGQGTTVTVSSASTKGPSVFPLAPSSKSTSGGTAALGCLVKDYFPEPVTVSWNSGALTSGVHTFPAVLQSSGLYSLSSVVTVPSSSLGTQTYICNVNHKPSNTKVDKRV[human IgG1 Fc not given here]
light: DIQMTQSPSSVSASVGDRVTITCRASQGISGWLAWYQQKPGKAPKFLIYAASTLQSGVPSRFSGSGSGTDFTLTISSLQPEDFATYYCQQANSFPPTFGGGTKVEIKRTVAAPSVFIFPPSDEQLKSGTASVVCLLNNFYPREAKVQWKVDNALQSGNSQESVTEQDSKDSTYSLSSTLTLSKADYEKHKVYACEVTHQGLSSPVTKSFNRGEC
As for B3, in series [8] (5 mg/kg i.v. QW × 3wks), the “TGI (%), Day 25” value was 109.2%; the “ΔT/ΔC (%), Day 25” value is recorded as -9.2%; the “Tumor Volume (mean ± SEM), Day 25” value is on record as 15.03 +/- 4.49(10) mm^3. Further, in series [8] (10 mg/kg i.v. QW × 3wks), the “TGI (%), Day 25” value was determined as 110.0%; the “ΔT/ΔC (%), Day 25” value is -10.0%; the “Tumor Volume (mean ± SEM), Day 25” value is listed as 1.95 +/- 1.95(10) mm^3.

The term EC50 denotes the concentration at which the effect is half-maximal.
